Measurements reported in PubChem BioAssay AID493208 (National Center for Advancing Translational Sciences (NCATS), 2011).
About 340 (0.77%) of roughly 44,000 compounds were called active. Another 5% or so got no clear call; they are omitted. Calls follow the shape of the dose curve; as a rule, active = well fitted inhibition curve with a large enough effect; inconclusive = small, poorly fitted or top-dose-only effect; inactive = flat fitted curve, though single readings scatter. This is one part of the list.

Test: Acumen qHTS Assay for Inhibitors of the mTORC1 Signaling Pathway in MEF (Tsc2-/-, p53-/-) Cells: Sytravon; also: nearly all actives have a fitted effect of over 50% in size
Settings: phospho-rpS6 immunofluorescence/PI, 24 h; series mostly up to 38.3 µM; activity change, negative = inhibition: at the top concentration
Text: NIH Molecular Libraries Probe Production Centers Network [MLPCN] NIH Chemical Genomics Center [NCGC] MLPCN Grant: NS059428-01 Assay Submitter (PI): Blenis, John; Hoffman, Greg; Harvard University NCGC Assay Overview: The mammalian target of rapamycin (mTOR) is an intracellular serine/threonine kinase Aberrant regulation of mTOR signaling plays a causative role in a number of human diseases, including cancer, benign tumors such as lymphangioleiomyomatosis (LAM) and Tuberous Sclerosis Complex (TSC), and metabolic diseases such as diabetes and obesity. This project aims to identify inhibitors of ribosomal protein S6 (rpS6) phosphorylation. The phosphorylation of rpS6 is a key event downstream of mTOR activation. The assay uses a phospho-specific antibody of phospho-rpS6 to detect inhibitors of mTOR activation. Mutations in the Tsc1 and Tsc2 genes are the underlying genetic lesions responsible for TSC, causing constitutive activation of the mTORC1 pathway and leading to profound effects on cell metabolism. Aberrant metabolism in cancer has recently received significant attention as a target to develop therapeutic agents in the treatment of cancer.1 As Tsc2-/- cells have lost the ability to respond to energy and growth factor deprivation, these cells are unable to properly down regulate cellular biosynthetic processes in response to metabolic stress, and are thus extremely sensitive to glucose deprivation-induced death.2 A central goal of this project is to explore the unique cell survival and metabolic properties of cells with Tsc1 or Tsc2 by screening for compounds that selectively target the Tsc2-/- MEFs by screening both Tsc2-/- and WT MEF cell lines. We hope to better understand these aspects of TSC physiology in order to exploit them for therapeutic benefit.
NCGC Acumen Assay Protocol Summary: For quantitative high throughput analysis of mTORC1 signaling, we developed a cell-based assay for immuno-fluorescence based detection of rpS6 phosphorylation on the Acumen Explorer that will be used a platform for the primary small molecule screen. Mouse embryonic fibroblasts (MEFs) are cultured in 1536-well plates using DMEM + 10% FBS. Twenty-four hrs after plating, test compounds (solubilized in DMSO) are delivered and incubated with the cells for 24 hrs at 37 degree Celsius. Following the incubation, media with compound is aspirated and the cells are fixed in 4% paraformaldehyde (PFA) containing PBS + 0.2% TX-100. Next, PFA is aspirated, cells are washed two times with PBS plus 0.2% TX-100 and the cells are blocked for 1 hr at room temperature (blocking buffer: LiCOR Blocking Buffer plus 0.2% TX-100). […] Cells are washed two times with PBS plus 0.2% TX-100, and stained with 10 uM propidium iodide (PI) for 20-25 minutes for cell number measurement (1:500 dilution of Hoescht staining is also added for IN Cell imaging). The plates are scanned on the Acumen Explorer laser scanning instrument (TTP Labtech) using the 488nm laser for simultaneous excitation of the Alexa-488 and PI. […] The normalized phospho-S6 staining is calculated as the ratio of the integrated Alexa 488 intensity divided by the integrated PI intensity for the single concentration rapamycin control (7.5 nM) and DMSO columns. […] Inhibition of the pathway is defined based on the normalized phospho-S6 intensity in rapamycin treated cells. Active cells are defined as those with a normalized phospho-S6 staining above this threshold, and each treatment is reported as the % positive cells in the well, where thresholds are defined by selecting wells with the highest and lowest signal and differentiating between the % non-active and % active populations. In addition to the pathway specific phospho-S6 endpoint, the number of PI stained cells from the Acumen is recorded as a measure of cell viability. The primary screen was performed with a MEF cell line in a defined genetic background, Tsc2-/-, p53-/- cell line stably transfected with an empty vector control (Tsc2-/- MEF).

SMILES | activity change, negative = inhibition
O=C(Cn1c(=O)n(-c2ccc(Cl)cc2)c(=O)c2sc3ccccc3c21)NC1CCCCC1 | inactive: -4.09%
COc1cc(OC)c(NC(=O)CCn2cccn2)cc1Cl | inactive: -9.09%
CN(Cc1ccccc1)C(C(=O)NC1CCCCC1)c1ccc(Cl)cc1 (stereo not given) | inactive: 3.9%
Fc1ccc(C(Nc2ccc(Cl)c(C(F)(F)F)c2)c2nnc(-c3ccccc3)o2)cc1 (stereo not given) | inactive: 3.61%
CCN(CCCNC(=O)CSc1cc(=O)n(C)c2cc(Cl)ccc12)c1cccc(C)c1 | inactive: 1.81%
Cc1c2cnn(-c3ccccc3)c(=O)c2c(C)n1CC(=O)N1CCN(c2ccc(F)cc2)CC1 | inactive: -5.25%
COc1cc(-c2noc(-c3ccc(N4CCOCC4)c([N+](=O)[O-])c3)n2)cc(OC)c1OC | inactive: -0.562%
Cc1ccc(NC(=O)CSc2nc3ccccc3c3nc(CCn4cncc4C)nn23)c(C)c1 | inactive: 2.07%
COc1cccc(-c2nc(CS(=O)(=O)CC(=O)Nc3cc(F)ccc3F)c(C)o2)c1 | inactive: -0.0999%
Cc1ccc(OCC(=O)N(Cc2ccco2)Cc2ccco2)cc1 | inactive: 2.78%
CCS(=O)(=O)c1nc2ccccc2n1CC(=O)Nc1ccccc1C(=O)OC | inactive: -8.06%
CCc1ccc(C(=O)c2c(N)c(-c3nc(-c4ccc5c(c4)OCO5)cs3)c3ccccn23)cc1 | inactive: -11.7%
Oc1c(C(c2ccc(Br)cc2)N2CCOCC2)sc2nc(-c3ccco3)nn12 (stereo not given) | inactive: -2.23%
COc1ccc2nc3sc(C(=O)N4CCN(c5ccccc5)CC4)cc3cc2c1 | inactive: 6.32%
COc1ccc(CCNC(=O)CCn2c(=O)c3ccccc3n(Cc3c(C)cc(C)cc3C)c2=O)cc1OC | inactive: -8.53%
N#Cc1ccccc1S(=O)(=O)N1CCCC(c2nc3c(nnn3Cc3cccc(Cl)c3)c(=O)[nH]2)C1 (stereo not given) | inactive: 2.35%
CC(C)CCNC(=O)CN1C(=O)c2cccnc2Oc2ccccc21 | inactive: 0.768%
CN(C)c1ccc(C(CNC(=O)c2ccccc2F)N2CCc3ccccc32)cc1 (stereo not given) | inactive: 0%
Cc1csc2nc(CCNS(=O)(=O)c3ccccc3)cn12 | inactive: -0.758%
O=C(NCc1ccco1)c1c[nH]c2ccc(S(=O)(=O)Nc3ccc(F)cc3F)cc2c1=O | inactive: -1.28%

SMILES | activity change, negative = inhibition
Cc1nn(-c2ccccc2)c2c1N(CCCC(=O)NCc1ccc(Cl)cc1)C(=O)CS2 | inactive: -7.73%
CN1CCN(C(=O)c2cnn(-c3cccc(Cl)c3)c2C2CCN(C(=O)OC(C)(C)C)CC2)CC1 | inactive: 7.37%
COc1cccc(CNC(=O)c2ccc3c(c2)N(Cc2ccc(C(F)(F)F)cc2)C(=O)c2ccccc2S3)c1OC | inactive: -4.35%
COc1ccc(-c2nnc(SCC(=O)NCc3ccccc3)nc2-c2ccc(OC)c(OC)c2)cc1OC | inactive: -12.1%
Cc1ccc(CN(Cc2ccco2)C(=O)COc2ccc(Cl)cc2Cl)cc1 | inactive: -9.74%
CCOc1ccccc1CNC(=O)CN(c1ccc(C)cc1)S(=O)(=O)N(C)C | inactive: -9.55%
CCOc1ccc(NC(=O)Cc2ccc(NC(=O)N3CCCCc4ccccc43)cc2)cc1 | inactive: -3.72%
CC(C)(C)c1ccc(S(=O)(=O)c2cnc(SCC(=O)Nc3ccc(F)c(Cl)c3)[nH]c2=O)cc1 | inactive: -2.43%
CCOC(=O)c1cc(-c2ccc(F)cc2)n(CC(=O)NCc2ccc(OC)cc2)c1C | inactive: 0.485%
COC(=O)c1ccc([C@H]2Nc3ccc(S(=O)(=O)Nc4ccc(C)cc4)cc3[C@H]3C=CC[C@H]32)cc1 | inactive: 1.4%
Brc1ccc(-c2nnc3sc(CN4CCCCC4)cn23)cc1 | inactive: -19.6%
Cc1ccccc1-c1nnc(CN2CCN(c3cccc(C)c3C)CC2)o1 | inactive: -6.33%
COc1cccc(NC(=O)CSc2nc3c([nH]c4ccccc43)c(=O)n2-c2ccccc2)c1 | inactive: -7.13%
Cc1ccc(NC(=O)CSc2nnc(C)n3c2cc2sccc23)c(C)c1 | inactive: 3.41%
COCCNC(=O)C(=O)NCC(c1cccnc1)N1CCN(c2ccccc2OC)CC1 (stereo not given) | inactive: -0.15%
Cc1ccc(CSc2ccc(-c3cccs3)nn2)cc1 | inactive: 1.96%
O=C(Cn1ncc2c3ccccc3n(Cc3ccccc3F)c2c1=O)NC1CCCCCC1 | inactive: 0.583%
O=C(NCc1ccccc1Cl)c1cc2c(s1)-c1ccccc1SC2 | inactive: 2.5%
CC(C)(C)NC(=O)c1cnn(-c2ccccc2)c1C1CCN(C(=O)OC(C)(C)C)CC1 | inactive: -3.16%
O=S(=O)(Nc1cccc(-c2ccc(N3CCCCCC3)nn2)c1)c1ccccc1F | inactive: 7.91%

SMILES | activity change, negative = inhibition
CCC(=O)Nc1ccccc1-c1nc2ccccc2n(CC(=O)c2ccc(C)c(C)c2)c1=O | inactive: -15.5%
COc1cc(C(=O)NCC(c2cccnc2)N2CCc3ccccc3C2)cc(OC)c1OC (stereo not given) | inactive: 9.65%
Cc1ccc(CN(C(=O)COc2ccc(Cl)c(C)c2)c2ccccn2)o1 | inactive: -15.1%
CCc1nc2sc3c(N4CCC(C)CC4)ncnc3c2c2c1CCCC2 | inactive: 3.79%
Cc1oc2ncn(C)c(=O)c2c1C(=O)Nc1ccccn1 | inactive: -0.673%
O=C(CN1C(=O)COc2ccc(S(=O)(=O)N3CCOCC3)cc21)N1CCN(c2cccc(C(F)(F)F)c2)CC1 | inactive: -5.16%
COc1cc(C2c3c(-c4c(C)cc(C)cc4O)n[nH]c3C(=O)N2CCO)cc(OC)c1OC (stereo not given) | inactive: -13.6%
CN(C)S(=O)(=O)c1ccc(C(=O)NCCS(=O)(=O)N2CCN(c3ccccc3)CC2)cc1 | inactive: -6.32%
Cc1nc2nc(SCc3c(F)cccc3Cl)nn2c(C)c1Cc1ccccc1 | inactive: 5.74%
Cc1ccc(-c2cc(-c3ccc4c(c3)NC(=O)CO4)nc3c2COc2ccc(C)cc2-3)cc1 | inactive: 2.36%
COc1ccc(-c2noc(COc3cc(C)c(Br)c(C)c3)n2)cc1OC | inactive: 6.39%
COc1ccc(OC)c(CNC(=O)c2cc3cc4ccc(OC)cc4nc3o2)c1 | inactive: -12%
Cc1ccc(C(=O)/C=C/c2cn(CC(O)CN3CCc4ccccc43)c3ccccc23)cc1 (stereo not given) | inactive: -0.878%
Cc1cc(-n2c(C)nc3ccccc3c2=O)ccc1NC(=O)c1ccc(C)c([N+](=O)[O-])c1 | inactive: -4.06%
CCOc1cc2sc(N3CCC(C(=O)Nc4ccccc4Cl)CC3)nc2cc1Br | inactive: -0.0216%
Cc1cc(S(=O)(=O)C(CNC(=O)COc2ccccc2)c2cccs2)ccc1F (stereo not given) | inactive: 0%
Cc1ccc(-c2nn(CC(=O)NC3CCCC3)c3c2cnc2ccc(F)cc23)cc1C | inactive: -7.01%
COc1ccc(NC(=O)CCN2CCN(CCO)CC2)c(OC)c1 | inactive: -2.47%
O=C(Nc1ccc2nc(SCc3ccccc3)sc2c1)c1cccc(F)c1 | inactive: -1.26%
COc1ccc(OCCSc2nc(C)c(Cc3ccccc3)c(=O)[nH]2)cc1 | inactive: -3.12%
